# Results: the supplement of paper PMC11417369
# This is one part of the list.
# Test system: PfHDP1 homeodomain (GST-tagged)
# Experiment: gcPBM binding intensity (ln(normalized median fluorescence intensity)); higher = stronger DNA binding
# How it was run: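 For binding intensity, the highest Masliner-normalised natural-log median intensity across replicate spots of either probe orientation was taken. Protein bound to the array was stained with Alexa488 anti-GST antibody and scanned at 488 nm. The protein, GST-tagged P. falciparum DNA-binding domains from E. coli at about 25 μg on average, had been applied for 1 h to an Agilent 4 × 180k array of primer-extended double-stranded 36-bp intergenic genomic probes and negative controls.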
row,Sequence,gcPBM binding intensity (ln)
1,GGAAAAAATATATGCACACCCCCCAAAAAAAAAAAA [CACACA_site2222],9.67
2,TTTTTGTTATTTTTAGTGCACATTTAAGGGTGTATT,9.92
3,TATATATATATATATATATATATGTATGTGCATTTA [TGCATGCA_negctrl_site53],11.2
4,ATATAAAAATGTAAGGGTACATAATAAATAATCAAA [XGTACX_site5217],6.55
5,ATTTAGAAAAATAAAACACACATATATATGTAAATA [CACACA_site4113],6.75
6,ATCTGTCGACAGGACAGTACACAGTAGCCAGGAAAT [XGTACX_site1994],6.79
7,TATAATATTTACGACAGTACATATATATATATGTAT [XGTACX_site8332],6.41
8,AAATAATTTGTTGACACACACACACCCATACATATA [CACACA_site2285],6.91
9,ATGGACTTTTATAGTTGTACATACTATGAGAACTTT [XGTACX_site2800],7.08
10,TAAAATAAATTGTGCACACATATTTATAAATATGAA [CACACA_site2331],10.7
11,TACATATAAAAGTACACACACACACCCATATATATA [CACACA_site941],7.07
12,GTTTATCACAGCCACGCACACATAATATATGTATAT [CACACA_site3669],7.18
13,TATTGCCCGAAACACACACACATATATATATATATA [CACACA_site2491],9.44
14,GATATATAAACATATACACACAAAAACATATTTATA [CACACA_site6734],6.63
15,AATATACAAAATATCACACATATAAAATAATATATA [CACACA_site6067],6.18
16,AAATAATATGTAATCAAATTCACCAAACGAAAAAAA [TGCATGCA_negctrl_site33],6.59
17,AATGGTTCAACGTAGTGTACGTAATAAATAATAAAT [XGTACX_site8668],6.5
18,TGATAATTTCATTTTGCATGTGACAATACAAGATGT [TGCATGCA_site203],6.28
19,ATTATATGTAACACGTGTACCTATTTATGTATGCTT [XGTACX_site5748],6.68

row,Sequence,gcPBM binding intensity (ln)
1,TTTGTTTTATCTTATATGCACACGATAAAAAAAAAA [CACACA_site2673],9.69
2,ATCCAAAAAATTAATGCATGCGCAAAAAATAGCTTA [TGCATGCA_site615],6.37
3,TGTCCTTATTTGCACACACACATATAAGAAATTTAA [CACACA_site7485],10.5
4,AAAAAAAAAACATACACACACATATATATATATATG [CACACA_site1586],6.95
5,ACAAAAAAATAAGGTGCACACAAAAAAAAAAAAAAA [CACACA_site8171],9.22
6,ATATAGCATATAATTTGTACACAGGCCATACCTGAA [XGTACX_site533],6.39
7,GAGTTCAGTTTTTGTTGTACTTATTCTTAATATGTC [XGTACX_site6083],6.22
8,TATATGGCATATTTCACACACACATAATGAATATTA [CACACA_site9181],6.59
9,TTTTTTTTTTTTTGATGTACTTATTTAATAAGATAT [XGTACX_site376],6.38
10,AGATGATATACGTAAACACACAAATAAAAAAAATTT [CACACA_site3327],6.49
11,GAAAAAAAAGAAAAAACACACATATGATATATTTAT [CACACA_site1524],6.01
12,ATATTTTCTTTTTAAAGTACATATTTGATTACAATA [XGTACX_site8414],6.2
13,TCTTAGATTATTTATTGTACTTATGCTTAAAAAATT [XGTACX_site3639],6.17
14,TAGTTATTTATATACACACACATACAGACAAATAAA [CACACA_site7577],7.11
15,GTCCAATAAGGAAGAGTGCAAAAATTAAATAATATA [GTGCAC_site9751],8.67
16,AAAGAAAAAAAAAACACACACACACGCATTCAATAT [CACACA_site6169],6.81
17,ATATATATTTATATATATATATATATATATATGTAT [GTGCAC_negctrl_site220],7.92
18,CATGTAATATTAAACACACACTCATATAACACAATA [CACACA_site65],6.86
19,TCTATATATAAATATAAATATATATATATAATGTTA [TGCATGCA_negctrl_site92],5.95

row,Sequence,gcPBM binding intensity (ln)
1,ATAGAATAATATTGTAGTACTAAAAATATTCATTTT [XGTACX_site6447],6.09
2,TAAAAAACAAAACAGGTGCTATATAATTTTCATTTT,6.36
3,TCTTTTTGTTCGTGTACACACATGAAATTTATAAAA [CACACA_site1619],7.13
4,AAGTATATACATATATGTACACATTGTCAGATAGAA [XGTACX_site1236],6.49
5,ATTATAAATTAAAATACACACATATATACATAATAT [CACACA_site7337],6.61
6,TTGTTTCTTAAATTATTTATTTTATATTAAAAAAAA [XGTACX_negctrl_site224],6.56
7,ATTCGTAGTTTTATGAATTAATATAATAAAAATTAA [XGTACX_negctrl_site181],5.99
8,TCGTAGTTACTATGGCAAGAAAATAAACGGTCTTGT [GTGCAC_negctrl_site684],6.6
9,AAGAAAATGAAAAAGTAAAAACATATATTAAATATA [TGCATGCA_negctrl_site123],6.45
10,ATATATATATATATATGTACATATTTTTAATTATAA [XGTACX_site7444],9.45
11,AAACATGATTATTATAGTACAATTATAATTATTATA [XGTACX_site2590],6.14
12,GTCATAAAAACATATACACACTTGAAATATAAAAAT [CACACA_site5315],6.63
13,CAAAGGGAAATTAACACACACATATATATATATATA [CACACA_site2453],9.42
14,GTATACACATATATATGTACTTAATTATTTTATGTC [XGTACX_site6707],7.1
15,TTTCTTTTCTCAGAAATTATTCAAATGAAAAAAAAT [TGCATGCA_negctrl_site44],6.07
16,TAATAATATATATGAAGTACAATAACTTTTTGTTTT [XGTACX_site292],6.11
17,TTTATATGTATTAAGTGTACACATATAATCTATCTT [XGTACX_site4922],6.71
18,GTCAAATTTTTGTGCACACATATATAGTTATTATTA [CACACA_site2241],11.7
